# Source: the supplement of paper PMC10037445
# The full ranking holds about 2,900 compounds; the median of “NF-kB SEAP reporter activity, fold change vs agonist alone” is about 0.99, and the highest 2% start at about 2.6. This is one part of the list.
# How the values were obtained:
# [1] = system: RAW-Dual; assay: NF-kB SEAP reporter activity, fold change vs agonist alone; cytotoxicity flag (confluency mask): not cytotoxic; higher = enhanced NF-kB activity
# Procedure, shortened: (§1)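 Supernatant from RAW-Dual macrophages was read after 20 hours for IRF by QuantiLuc luminescence and for NF-κB by QuantiBlue absorbance at 620 nm. The cells (50,000 cells/well in DMEM, 384-well plates, 37 °C, 5% CO2) had received 50 nL of library stock by pin tool and, 1 h later, a PRR agonist. Reporter activity is expressed relative to agonist-alone wells as fold change, and wells were flagged cytotoxic if IncuCyte confluency was under 70% of agonist controls in both mask sets.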
# [2] = system: RAW-Dual; assay: NF-kB SEAP reporter activity, fold change vs agonist alone; higher = enhanced NF-kB activity
# Procedure, shortened: as §1
# [3] = system: RAW-Dual; assay: NF-kB SEAP reporter activity, fold change vs agonist alone; cytotoxicity flag (confluency mask): cytotoxic (confluency <70% of control); higher = enhanced NF-kB activity
# Procedure, shortened: as §1
# [4] = agonist: ODN 1826 (TLR9) 0.5 ug/mL
# [5] = agonist: Pam2CSK4 (TLR2/6) 0.1 ug/mL
# [6] = agonist: Pam3CSK4 (TLR2/1) 0.1 ug/mL
# [7] = library stock concentration (final ~1000-fold dilution): 10 mM, cytotoxicity flag (confluency mask): not cytotoxic, agonist: Imiquimod (TLR7) […]
# [8] = library stock concentration (final ~1000-fold dilution): 10 mM, cytotoxicity flag (confluency mask): not cytotoxic, agonist: MPLA (TLR4) […]
# [9] = library stock concentration (final ~1000-fold dilution): 10 mM, cytotoxicity flag (confluency mask): cytotoxic (confluency <70% of control), agonist: Imiquimod (TLR7) […]
# [10] = library stock concentration (final ~1000-fold dilution): 10 mM, cytotoxicity flag (confluency mask): cytotoxic (confluency <70% of control), agonist: MPLA (TLR4) […]
compound,measurement,setting,value
COC(C(=O)N1Cc2[nH]nc(NC(=O)c3ccc(N4CCN(C)CC4)cc3)c2C1)c1ccccc1 (stereo unspecified) (library stock concentration (final ~1000-fold dilution): 10 mM),NF-kB SEAP reporter activity,[1]; agonist: LPS (TLR4) 0.1 ug/mL,0.879
same,NF-kB SEAP reporter activity,[1]; [4],2.15
same,NF-kB SEAP reporter activity,[1]; [5],1.67
same,NF-kB SEAP reporter activity,[1]; [6],1.67
COC(C(=O)N1Cc2[nH]nc(NC(=O)c3ccc(N4CCN(C)CC4)cc3)c2C1)c1ccccc1 (stereo unspecified),NF-kB SEAP reporter activity,[2]; [7],2.05
same,NF-kB SEAP reporter activity,[2]; [8],1.15
CCS(=O)(=O)O.COC(=O)c1ccc2c(c1)NC(=O)/C2=C(\Nc1ccc(N(C)C(=O)CN2CCN(C)CC2)cc1)c1ccccc1,NF-kB SEAP reporter activity,[2]; [8],2.25
CCS(=O)(=O)O.COC(=O)c1ccc2c(c1)NC(=O)/C2=C(\Nc1ccc(N(C)C(=O)CN2CCN(C)CC2)cc1)c1ccccc1 (library stock concentration (final ~1000-fold dilution): 10 mM),NF-kB SEAP reporter activity,[1]; agonist: LPS (TLR4) 0.1 ug/mL,2.02
same,NF-kB SEAP reporter activity,[1]; [4],0.222
same,NF-kB SEAP reporter activity,[1]; [5],1.61
same,NF-kB SEAP reporter activity,[1]; [6],1.31
CONC(=O)c1ccccc1Nc1cc(Nc2cc(C)nn2C(C)C)ncc1Cl (library stock concentration (final ~1000-fold dilution): 10 mM),NF-kB SEAP reporter activity,[1]; agonist: LPS (TLR4) 0.1 ug/mL,0.82
same,NF-kB SEAP reporter activity,[1]; [4],1.73
same,NF-kB SEAP reporter activity,[1]; [5],0.957
same,NF-kB SEAP reporter activity,[1]; [6],1.25
CONC(=O)c1ccccc1Nc1cc(Nc2cc(C)nn2C(C)C)ncc1Cl,NF-kB SEAP reporter activity,[2]; [7],1.18
same,NF-kB SEAP reporter activity,[2]; [8],0.931
CS(=O)(=O)O.CS(=O)(=O)O.Cc1ccc(C(=O)Nc2ccc(CN3CCN(C)CC3)c(C(F)(F)F)c2)cc1C#Cc1cnc2[nH]ncc2c1,NF-kB SEAP reporter activity,[2]; [9],0.129
same,NF-kB SEAP reporter activity,[2]; [10],0.214
CS(=O)(=O)O.CS(=O)(=O)O.Cc1ccc(C(=O)Nc2ccc(CN3CCN(C)CC3)c(C(F)(F)F)c2)cc1C#Cc1cnc2[nH]ncc2c1 (library stock concentration (final ~1000-fold dilution): 10 mM),NF-kB SEAP reporter activity,[3]; agonist: LPS (TLR4) 0.1 ug/mL,0.191
same,NF-kB SEAP reporter activity,[3]; [4],0.183
same,NF-kB SEAP reporter activity,[3]; [5],0.0586
same,NF-kB SEAP reporter activity,[3]; [6],0.138
CC(=O)NC1C(NC(=N)N)C=C(C(=O)O)OC1C(O)C(O)CO (stereo unspecified) (library stock concentration (final ~1000-fold dilution): 10 mM water),NF-kB SEAP reporter activity,[1]; agonist: LPS (TLR4) 0.1 ug/mL,1.37
same,NF-kB SEAP reporter activity,[1]; [4],1.17
same,NF-kB SEAP reporter activity,[1]; [5],1.19
same,NF-kB SEAP reporter activity,[1]; [6],1.07
CC(=O)NC1C(NC(=N)N)C=C(C(=O)O)OC1C(O)C(O)CO (stereo unspecified),NF-kB SEAP reporter activity,"[2]; library stock concentration (final ~1000-fold dilution): 10 mM water, cytotoxicity flag (confluency mask): not cytotoxic, agonist: Imiquimod (TLR7) […]",0.917
same,NF-kB SEAP reporter activity,"[2]; library stock concentration (final ~1000-fold dilution): 10 mM water, cytotoxicity flag (confluency mask): not cytotoxic, agonist: MPLA (TLR4) […]",1.03
CCC1(O)C(=O)OCc2c1cc1n(c2=O)Cc2cc3c(CN(C)C)c(O)ccc3nc2-1.Cl (stereo unspecified) (library stock concentration (final ~1000-fold dilution): 10 mM),NF-kB SEAP reporter activity,[3]; agonist: LPS (TLR4) 0.1 ug/mL,2.73
same,NF-kB SEAP reporter activity,[3]; [4],2.71
same,NF-kB SEAP reporter activity,[3]; [5],0.868
same,NF-kB SEAP reporter activity,[3]; [6],1.35
CCC1(O)C(=O)OCc2c1cc1n(c2=O)Cc2cc3c(CN(C)C)c(O)ccc3nc2-1.Cl (stereo unspecified),NF-kB SEAP reporter activity,[2]; [9],2.3
same,NF-kB SEAP reporter activity,[2]; [10],2.16
C=CCc1ccc(O)c(OC)c1,NF-kB SEAP reporter activity,[2]; [7],0.972
same,NF-kB SEAP reporter activity,[2]; [8],1.06
C=CCc1ccc(O)c(OC)c1 (library stock concentration (final ~1000-fold dilution): 10 mM),NF-kB SEAP reporter activity,[1]; agonist: LPS (TLR4) 0.1 ug/mL,1.17
same,NF-kB SEAP reporter activity,[1]; [4],0.728
same,NF-kB SEAP reporter activity,[1]; [5],0.805
same,NF-kB SEAP reporter activity,[1]; [6],0.816
COCCOc1nc(-c2ccc(Cl)c(Cl)c2)n(-c2ccc(NC(=O)CCl)cc2)n1 (library stock concentration (final ~1000-fold dilution): 10 mM),NF-kB SEAP reporter activity,[1]; agonist: LPS (TLR4) 0.1 ug/mL,0.196
same,NF-kB SEAP reporter activity,[1]; [4],0.18
same,NF-kB SEAP reporter activity,[1]; [5],0.0849
same,NF-kB SEAP reporter activity,[1]; [6],0.149
same,NF-kB SEAP reporter activity,[3]; agonist: LPS (TLR4) 0.1 ug/mL,0.322
same,NF-kB SEAP reporter activity,[3]; [4],0.201
same,NF-kB SEAP reporter activity,[3]; [5],0.075
same,NF-kB SEAP reporter activity,[3]; [6],0.175
COCCOc1nc(-c2ccc(Cl)c(Cl)c2)n(-c2ccc(NC(=O)CCl)cc2)n1,NF-kB SEAP reporter activity,[2]; [9],0.149
same,NF-kB SEAP reporter activity,[2]; [10],0.267
same,NF-kB SEAP reporter activity,[2]; [7],0.139
same,NF-kB SEAP reporter activity,[2]; [8],0.252
Cc1cc(C)c(CN2CCc3c(Cl)cc(-c4c(C)noc4C)c(Cl)c3C2=O)c(=O)[nH]1,NF-kB SEAP reporter activity,[2]; [7],1.24
same,NF-kB SEAP reporter activity,[2]; [8],1.64
Cc1cc(C)c(CN2CCc3c(Cl)cc(-c4c(C)noc4C)c(Cl)c3C2=O)c(=O)[nH]1 (library stock concentration (final ~1000-fold dilution): 10 mM),NF-kB SEAP reporter activity,[1]; agonist: LPS (TLR4) 0.1 ug/mL,2.16
same,NF-kB SEAP reporter activity,[1]; [4],1.51
same,NF-kB SEAP reporter activity,[1]; [5],0.917
same,NF-kB SEAP reporter activity,[1]; [6],0.98
CC(C)(C)CC1NC(C(=O)NC2CCC(O)CC2)C(c2cccc(Cl)c2F)C12C(=O)Nc1cc(Cl)ccc12 (stereo unspecified) (library stock concentration (final ~1000-fold dilution): 10 mM),NF-kB SEAP reporter activity,[3]; agonist: LPS (TLR4) 0.1 ug/mL,3.05
same,NF-kB SEAP reporter activity,[3]; [4],2.82
same,NF-kB SEAP reporter activity,[3]; [5],0.884
same,NF-kB SEAP reporter activity,[3]; [6],1.21
CC(C)(C)CC1NC(C(=O)NC2CCC(O)CC2)C(c2cccc(Cl)c2F)C12C(=O)Nc1cc(Cl)ccc12 (stereo unspecified),NF-kB SEAP reporter activity,[2]; [9],1.55
same,NF-kB SEAP reporter activity,[2]; [10],2.25
O=C1NC(=O)C(c2ccccc2[N+](=O)[O-])=C1Nc1ccc(O)c(Cl)c1,NF-kB SEAP reporter activity,[2]; [7],0.83
same,NF-kB SEAP reporter activity,[2]; [8],1.19
O=C1NC(=O)C(c2ccccc2[N+](=O)[O-])=C1Nc1ccc(O)c(Cl)c1 (library stock concentration (final ~1000-fold dilution): 10 mM),NF-kB SEAP reporter activity,[1]; agonist: LPS (TLR4) 0.1 ug/mL,1.16
same,NF-kB SEAP reporter activity,[1]; [4],1.56
same,NF-kB SEAP reporter activity,[1]; [5],1.25
same,NF-kB SEAP reporter activity,[1]; [6],1.77
NC(=O)c1cnc2[nH]ccc2c1NC1C2CC3CC1CC(O)(C3)C2 (stereo unspecified),NF-kB SEAP reporter activity,[2]; [7],0.334
same,NF-kB SEAP reporter activity,[2]; [8],0.347
NC(=O)c1cnc2[nH]ccc2c1NC1C2CC3CC1CC(O)(C3)C2 (stereo unspecified) (library stock concentration (final ~1000-fold dilution): 10 mM),NF-kB SEAP reporter activity,[1]; agonist: LPS (TLR4) 0.1 ug/mL,0.305
same,NF-kB SEAP reporter activity,[1]; [4],0.398
same,NF-kB SEAP reporter activity,[1]; [5],0.242
same,NF-kB SEAP reporter activity,[1]; [6],0.31
O=C1NC(=O)/C(=C/c2ccc3nccc(-c4ccncc4)c3c2)S1 (library stock concentration (final ~1000-fold dilution): 2 mM),NF-kB SEAP reporter activity,[1]; agonist: LPS (TLR4) 0.1 ug/mL,0.993
same,NF-kB SEAP reporter activity,[1]; [4],0.863
same,NF-kB SEAP reporter activity,[1]; [5],0.5
same,NF-kB SEAP reporter activity,[1]; [6],0.581
